The text below walks through data of the supplement of paper PMC4723716.

The test system of the test is Plasmodium falciparum NF54 stage V gametocytes. Put plainly: viability index relative to DMSO control (fraction); higher = less gametocyte killing. To be noted: 2.5 µM, incubation time: 72 h. Summed up: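 Gametocytes (P. falciparum NF54, stage V) were treated with compound at 2.5 µM for 72 hr at 37°C in low oxygen, in serum-free medium at 0.75% gametocytemia and 1.25% hematocrit. Counts of 20–70 µm2 red particles, taken from one field per well after MitoTracker Red CMXRos with saponin, were divided by the plate mean of solvent-only wells. This ratio is the viability index.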

Setting [1] is: library set: Broad Institute DOS.

± gives the uncertainty stated by the source. In all, about 9,900 compounds were measured (“viability index relative to DMSO control”: median about 1, lowest 2% from about 0.85 on). The list shows a part of the results.

Regarding `CCCC#Cc1ccc2c(c1)O[C@@H](CN(C)Cc1ccccn1)[C@H](C)CN([C@@H](C)CO)S2(=O)=O`, the viability index under setting [1] is 0.9365 ± 0.0091.
With `Cc1cc(C(=O)Nc2cccc3c2O[C@H](CN(C)C)[C@H](C)CN([C@H](C)CO)C3=O)n(C)n1`, the viability index under setting [1] is 0.968 ± 0.029.
Take `O=C(Nc1cc(F)ccc1F)N1CC(=O)N2[C@H](CO)[C@@H](c3ccc(/C=C/c4ccccc4)cc3)[C@@H]2C1`: the viability index under setting [1] turned out to be 1.059 ± 0.0045.
Consider `CCC(=O)N1[C@@H](CO)[C@H](c2ccccc2)C12CN(C(=O)c1ccc3c(c1)OCO3)C2`, for which, under setting [1], the viability index turned out to be 0.971 ± 0.017.
Same read-out and setting: to `N#C[C@H]1[C@H](c2ccccc2-c2ccccc2F)[C@H](CO)N1C(=O)C1CCC1` belongs 1.14 ± 0.022.
The molecule `COc1ccccc1S(=O)(=O)N(C)C[C@@H]1OCc2ccccc2-c2c(n(C)c3ccccc23)C(=O)N([C@@H](C)CO)C[C@@H]1C` gave a viability index (library set: Broad Institute Blood Stage) of 0.981 ± 0.05.
Take `C[C@@H]1CCCCO[C@@H](CN(C)S(=O)(=O)c2cn(C)cn2)[C@H](C)CN([C@@H](C)CO)C(=O)c2cc(NC(=O)Nc3cccc4ccccc34)ccc2O1`: under setting [1], the viability index worked out at 1.02 ± 0.062.
`O=C(C[C@H]1C=C[C@H](NC(=O)Nc2ccc3c(c2)OCO3)[C@H](CO)O1)NCCCN1CCOCC1`: the viability index under setting [1] is 0.9928 ± 0.0036.
Same read-out and setting: to `C[C@H]1COCc2cn(nn2)CCCC(=O)N1` belongs 1 ± 0.045.
Turning to `CO[C@@H]1CN(C)C(=O)c2ccc(NC(=O)c3ccccc3F)cc2OC[C@@H](C)N(C)C[C@H]1C`, the viability index under setting [1] was 1.11 ± 0.044.
The same measure, in the same setting: to `CC(C)CC#Cc1ccc([C@H]2[C@@H](CO)N3C(=O)CN(C(=O)Nc4cc(F)ccc4F)C[C@H]23)cc1` belongs 1.04 ± 0.077; to `COc1cccc(S(=O)(=O)N2C[C@H](O)COC[C@H]3O[C@H](CC(=O)NCCCN4CCOCC4)CC[C@@H]32)c1`, 1.061 ± 0.0083; to `O=C(C1CCOCC1)N1CC(=O)N2[C@H](CO)[C@@H](c3ccc(/C=C/c4ccccc4)cc3)[C@@H]2C1`, 1.05 ± 0.082.
On the same count and under the same terms, to `C[C@H]1CCCCO[C@@H](CN(C)CC2CC2)[C@@H](C)CN([C@@H](C)CO)C(=O)c2cc(NC(=O)c3ccccc3)ccc2O1` belongs 1.08 ± 0.016.
`COC(=O)[C@H]1[C@H](CO)[C@H]2Cn3c(ccc(C4=CCCC4)c3=O)[C@H]2N1C(=O)Cc1cccnc1` had a viability index under setting [1] of 1.01 ± 0.14.
Under setting [1], `CN1CCN(C(=O)c2cc3c(c(-c4cccc(C5=CCCC5)c4)n2)[C@@H](CCO)N([S@](=O)C(C)(C)C)C3)CC1` displayed a viability index of 0.991 ± 0.024.
`CNC[C@H]1Oc2c(NC(=O)Nc3cccc4ccccc34)cccc2C(=O)N([C@@H](C)CO)C[C@H]1C` showed a viability index under setting [1] of 0.9539 ± 0.0054.
The same measure, in the same setting: to `C[C@H]1CN([C@@H](C)CO)C(=O)CCCn2nncc2CO[C@@H]1CN(C)C(=O)Nc1ccccc1C(F)(F)F` belongs 0.977 ± 0.062; to `N#C[C@H]1[C@H](c2ccccc2)[C@@H](CO)N1C(=O)Nc1cccc(F)c1`, 1.07 ± 0.081; to `C[C@H](CO)N1C[C@H](C)[C@H](CN(C)S(=O)(=O)c2ccc(-n3cccn3)cc2)OCc2cn(nn2)CCCC1=O`, 1.12 ± 0.042.
